Test results published in PubChem BioAssay AID651820 (National Center for Advancing Translational Sciences (NCATS), 2012).
Screen size: about 340,000 compounds; about 12,000 (3.5%) were called active. The inconclusive results got no clear call from the source; some entries with a clear call stand among them for comparison. Calls come from the whole dose curve; as a rule, active = well fitted inhibition curve with a large enough effect; inconclusive = small, poorly fitted or top-dose-only effect, or another doubt; inactive = no such curve, though single readings can be large or run the other way. No potency is given beside an inconclusive call; the fits are too rough.

Test: qHTS Assay for Inhibitors of Hepatitis C Virus (HCV)
Details: Huh7.5.1 HCVcc-Cre (HCVcc is cell-culture hepatitis C virus) infection, luciferase reporter, 44 h; series mostly up to 41.8 µM
In short: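 Seed cells (1,000/well) for 4 h; treat with compound and infect with HCVcc-Cre, moi about 0.5. Incubate 44 h, then detect luciferase activity.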
Potency is the fitted concentration of half-maximal effect; tags give direction and shape of the fitted curve.

Row | Compound | Potency
1 | CCOc1cc(/C=N/n2cnnc2)ccc1OC(=O)c1cccc([N+](=O)[O-])c1 | inactive
2 | CCOC(=O)C1CCCN(S(=O)(=O)NC[C@H]2O[C@@H](n3cnc4c(N)ncnc43)[C@H](O)[C@@H]2O)C1 (stereo partly specified) | inactive
3 | COc1ccc(OC)c(C2(O)CSC(=Nc3cccnc3)N2Cc2ccco2)c1 (stereo unspecified) | inconclusive [inhibitor, partial curve]
4 | COc1ccc(/C=C2\SC(=S)N(CCC(=O)NC3C=CS(=O)(=O)C3)C2=O)cc1 (stereo unspecified) | inconclusive [inhibitor, partial curve]
5 | Cc1ccc(-c2nnc(SCC(C)C)n2C)cc1 | inactive
6 | COc1ccc(CN2CCN(Cc3ccco3)CC2)c(OC)c1 | inactive
7 | c1ccc2cc(Sc3ncnc4c3oc3ccccc34)ccc2c1 | inconclusive [inhibitor, single point]
8 | CC(c1ccccc1)N1C(=O)/C(=C/c2ccncc2)SC1=S (stereo unspecified) | inconclusive [inhibitor, single point]
9 | COC(=O)C1=C(c2ccc(OC(F)(F)F)cc2)C[C@@H]2CC[C@H]1N2C(=O)N1CCOCC1 | inconclusive [inhibitor, partial curve]
10 | CC(=O)c1cccc(NC(=O)N2CCCC2C(=O)NCc2ccc(C)cc2)c1 (stereo unspecified) | inactive
11 | O=C(O)CCc1ccc(-c2cccs2)n1NC(=O)c1ccccc1Br | inconclusive [inhibitor, single point]
12 | Cc1cc(NCCCO)n2c(nc3ccccc32)c1C#N | inactive
13 | Cc1nc(Nc2nc(CSc3nc4ccccc4[nH]3)cc(=O)[nH]2)nc2ccccc12 | inconclusive [inhibitor, single point]
14 | COc1ccc(C2c3ccsc3CCN2C(=O)NC(C)(C)C)cc1 (stereo unspecified) | active: 22.4 µM
15 | O=C(Nc1cccc(F)c1)Nc1cccc(Cl)c1 | inconclusive [inhibitor, single point]
16 | CC(=O)c1ccc(NC(=O)CC2Nc3cccc4cccc(c34)NC2=O)cc1 (stereo unspecified) | inconclusive [inhibitor, single point]
17 | COCCn1c(COc2ccc(OC)cc2)nc2ccccc21 | inconclusive [inhibitor, single point]
18 | COc1ccc(-c2noc(C3CCCN(C(=O)c4ccccc4C)C3)n2)cc1 (stereo unspecified) | active: 31.6 µM
19 | Cc1cc(C)n(-c2ccc(C(=O)NC(C)C)cc2)n1 | inactive
20 | Cc1cc(N)n2nc(C)c(-c3ccccc3)c2n1 | inconclusive [inhibitor, partial curve]
21 | O=C(CSc1nnc(-c2ccncc2)n1Cc1ccco1)Nc1ccccc1Cl | inactive
